In all, about 4,000 sequences were measured (“arbitrary fluorescence units”: median about 830, highest 2% from about 6,500 on). Most of the strongest results are missing from this list.
Each sequence was assayed against RUNX1 (UniProt Q01196) (assay: RUNX1 binding intensity (PBM fluorescence), RUNX1 alone (arbitrary fluorescence units); higher = stronger binding). Conditions: RUNX1 concentration 2 nM; ETS1 concentration 0 nM.
Method: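 gcPBM on 36-bp genomic-derived probes (partner site mutated) containing one RUNX1 site and no ETS1 site. Recombinant human RUNX1 (2 nM) was incubated alone or with ETS1 (25 nM) and detected by anti-RUNX1 antibody fluorescence. Values are medians over 4 replicate spots (not normalised). The probes sit in constant array flanks that are not printed.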
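Also: Full-length recombinant human RUNX1 bound to double-stranded DNA microarray spots, detected with an Alexa488-labelled secondary antibody after the anti-RUNX1 primary, read as scanned spot fluorescence.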

Sequence of UniProt Q01196 (Q01196 whole entry): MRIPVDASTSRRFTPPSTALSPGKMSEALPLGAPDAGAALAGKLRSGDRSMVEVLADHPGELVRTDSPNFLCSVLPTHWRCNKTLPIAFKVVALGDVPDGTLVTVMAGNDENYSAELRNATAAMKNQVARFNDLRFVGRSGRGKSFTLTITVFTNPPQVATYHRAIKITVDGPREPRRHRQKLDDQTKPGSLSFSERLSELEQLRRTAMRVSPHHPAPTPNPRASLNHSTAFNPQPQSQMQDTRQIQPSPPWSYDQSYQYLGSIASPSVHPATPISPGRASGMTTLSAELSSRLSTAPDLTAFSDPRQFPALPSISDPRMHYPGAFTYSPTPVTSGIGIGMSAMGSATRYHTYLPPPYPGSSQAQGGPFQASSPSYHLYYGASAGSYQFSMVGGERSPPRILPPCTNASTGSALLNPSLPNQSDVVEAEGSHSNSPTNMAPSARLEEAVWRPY

Point of comparison: TTTTTTGCGCCTGTAGGGTCACATTGTGGTTGATTG, RUNX1 binding intensity 1030. Against it:
- AACTGCGGTGGGCCCCGCCCAGTTCGAACGTCCCTG — lower, 931
- GACAAGATTGCGGGTGGCAACCCCATCAGGTTTGTT — higher, 1410
- AGGCTCATTGCCTGTTTTCATGTGGTTTAGAGAAAA — the same, 1030
- GCGGGGCGCAGGGAGCGGGGCGAAACCACTGTTGGC — lower, 791
- TGATTCTGGGACATGTCGATCGGCTGTGGGCGGCGC — lower, 669
- TGATGTAGAAACCGCTCGGCTTCAGGCGAGGGTGGG — lower, 723
- CCGGTCGGGGCCGCAGCCGCTTACGGAGCCGCGGGC — lower, 770
- AACAACCCAAAAACCAACTCGGCGGCAGGCCTTGGC — lower, 823
- CTAATGGCGAAACCACGGAGAGAAGGAATTGAAGAA — lower, 787
- CCCAGCCTGAGAAGGGACTGAGGCTGCGGCGCAGAA — lower, 764
- GCCCTGCGGCGCCTGCGCGCTAAAAAGAGGACGTTT — lower, 703
- CCGCCCCCGTACGGTCACAGCACCCAAACCGCAGGC — higher, 3120
- GAAACTTAGTCTGTGGGGAGAAGGACGTATCTTTGC — lower, 756
- TGTTTAGATGTGGGCACACCTGACATGCGCGGGCTC — lower, 663
- GCAAGATCCCGCATTAACATCTCGGGAATGGACAGC — lower, 731
- TCCCCACCTCCTTTAAAACGATGAGATAACCACATG — higher, 1440
- TGTGGAGACATGAAGCACTAACCTCAAACCTCTTTC — lower, 876
- TTTCTTTGTGGGAGGGAGTGGGGGAGGTTGACTGAT — higher, 1420
- TTCACGCTCCGCAAGCTCGCTCCTTTCGGGACGCAG — lower, 738
- TATACCGTACAGGTGGTCAAAAGGACGTTCAAGTTA — lower, 822
- TGGAGTGGAGGCAGTGGTGTTACCACAGCTCAGAGG — lower, 751
- GCTGACCCGTAAGCGCTCGTGACCACCATCTCCGAC — lower, 894
- CCCAGAGTCCAGAATCGCTGCCTGCGGCTTGACACA — lower, 771
- TTCGCTCCCTGAACCGCGTCGCTTCATGAGCCGCGC — lower, 814
- TCACAAAACCACTGGAGGTAACGTCCTCCATTTTTT — lower, 798
- GCTTTTTGCGGCTGCGCGGGCTCCCTGGAGTCCTGC — lower, 763
- AAGCAACCGCCGAGGGGAGACGCCGAAAGTCCCGCC — lower, 812
- CACCTCAGCTTGCTGAGTAGCTGGGACCACAGGCGT — lower, 743
- TCAACGCCACCACAAAGAGACGCCCGGGAGAAGCCT — lower, 1020
- ACTTCCAGGGAGCCCCATAGTCCAGAAACCCACACA — lower, 1010
- CACTGCCTGCCCTCTTCCACTTTCAAAACCACATCA — higher, 2410
- CTGTCTCCGAGTAAAGTAGGGTGTGTGGGTCACATG — lower, 746
- GCATGCGCCACAGACCATGCACTGGATTGGGCGCCT — lower, 737
- TCTTCAGCAGCAAGACCCTGGTCTAGCCACAAGCCT — lower, 718
- CGTGGCCGAAGCCGCGGGGACTGCGGGGGCGGAGTG — lower, 759
- GGCACAGGCTCACCGCGCAGGCAGGGAGCAGCGGTA — lower, 732
- GCCGTCCCCACCGCTCGCAGCCACCAGGCAACCCCG — lower, 991
- CTTGTGCAGCTGCGGTTCTCAGCAGCCGCGGGCGGA — higher, 1180
- GGAGCCGCAGCCGAGCTCCGTGTCCACTCCCGGGTT — lower, 870

Source: the supplement of paper PMC10681739
